In patent publication US20250019377A1 (JACOBIO PHARMACEUTICALS CO., LTD, priority 2021, published 2025):

Legend:
[1] = molecular target: T1, K-Ras WT (Homo sapiens, UniProt P01116); experiment: SOS1 catalyzed nucleotide exchange assay (GDP form K-Ras), K-Ras WT; conditions: read-out: K-Ras WT GDP Biochemical Activity (IC50)
[2] = molecular target: T1, K-Ras WT; experiment: GTP-K-Ras and cRAF interaction assay (GppNp-K-Ras), K-Ras WT; conditions: read-out: K-Ras WT GppNp Biochemical Activity (IC50)
[3] = molecular target: K-Ras Q61H (Homo sapiens, UniProt P01116, Q61H); experiment: SOS1 catalyzed nucleotide exchange assay (GDP form K-Ras), K-Ras Q61H; conditions: read-out: K-Ras Q61H GDP Biochemical Activity (IC50)
[4] = molecular target: K-Ras G12A (Homo sapiens, UniProt P01116, G12A); experiment: SOS1 catalyzed nucleotide exchange assay (GDP form K-Ras), K-Ras G12A; conditions: read-out: K-Ras G12A GDP Biochemical Activity (IC50)
[5] = molecular target: K-Ras G12R (Homo sapiens, UniProt P01116, G12R); experiment: SOS1 catalyzed nucleotide exchange assay (GDP form K-Ras), K-Ras G12R; conditions: read-out: K-Ras G12R GDP Biochemical Activity (IC50)

C#Cc1c(F)ccc2cc(O)cc(-c3ncc4c(N5CCOC[C@@H](CC#N)C5)nc(OC[C@@]56CCCN5C[C@H](F)C6)nc4c3F)c12 (single isomer, unassigned) [Compound 14A]
IC50 [1]: 12.9 nM | IC50 [2]: 755 nM

C#Cc1c(F)ccc2cc(O)cc(-c3ncc4c(N5CCOCC6CC65)nc(OC[C@@]56CCCN5C[C@H](F)C6)nc4c3F)c12 (stereo partly drawn) [Compound 33, 4-(4-(5-oxa-2-azabicyclo[5.1.0]octan-2-yl)-8-fluoro-2-(((2R,7aS)-2-fluorotetrahydro-1H-pyrrolizin-7a(5H)-yl)methoxy)pyrido[4,3-d]pyrimidin-7-yl)-5-ethynyl-6-fluoronaphthalen-2-ol]
IC50 [1]: 0.934 nM | IC50 [3]: 1.01 nM | IC50 [4]: 0.685 nM | IC50 [5]: 0.938 nM

C#Cc1c(F)ccc2cc(O)cc(-c3ncc4c(N5CCCOCC5)nc(OCC5(CN6CCOCC6)CC5)nc4c3F)c12 [Compound 64, 5-ethynyl-6-fluoro-4-(8-fluoro-2-((1-(morpholinomethyl)cyclopropyl)methoxy)-4-(1,4-oxazepan-4-yl)pyrido[4,3-d]pyrimidin-7-yl)naphthalen-2-ol trifluoroacetic acid]
IC50 [1]: 1.83 nM
